In PubChem BioAssay (NCATS):
Several values for one entry are separate records, joined by “and”; a condition that tells them apart may be missing. Equal entries are not always repeated. The inconclusive results got no clear call from the source; some entries with a clear call stand among them for comparison. Where the call is inconclusive, the potency comes from a doubtful curve fit. Activity calls are given as the source filed them. The call rests on the fitted dose curve; in most records, active means well fitted curve in the direction sought with a large enough effect; inconclusive means small, poorly fitted or top-dose-only effect, or another doubt; inactive means no such curve, though single readings can be large; an effect the other way counts as inactive or inconclusive.

What was measured:
[1] = qHTS of pediatric cancer cell lines to identify multiple opportunities for drug repurposing: Primary screen for DAOY cells (AID 1347090); conditions: DAOY medulloblastoma viability, CellTiter-Glo luminescence, 48 h; activity change, negative = cytotoxic: at 46 µM (top of the series); further: nearly all actives have a fitted effect of over 55% in size
Method in brief: (§1)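 Viability measured as metabolically active cells via CellTiter-Glo luminescence following 48 hours of compound exposure, 11-point dilutions in confirmatory testing. 500-1,000 cells/well plated 5 hours before dosing; controls were DMSO and 2.3 µM bortezomib.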

[2] = qHTS of pediatric cancer cell lines to identify multiple opportunities for drug repurposing: Primary screen for SJ-GBM2 cells (AID 1347091)
Method in brief: as §1

[3] = qHTS of pediatric cancer cell lines to identify multiple opportunities for drug repurposing: Primary screen for A673 cells (AID 1347092); conditions: A673 Ewing sarcoma viability, CellTiter-Glo ATP luminescence, 48 h; activity change, negative = cytotoxic: at 46 µM (top of the series); further: nearly all actives have a fitted effect of over 45% in size
Method in brief: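 A673 cells (500-1,000 cells/well in growth media) were pre-incubated 5 h at 37 degrees C, then exposed to compounds for 48 h. Viability was read as CellTiter-Glo luminescence; concentration-response curves came directly from the primary screen.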

[4] = qHTS of pediatric cancer cell lines to identify multiple opportunities for drug repurposing: Primary screen for BT-37 cells (AID 1347094)
Method in brief: (§2)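 Cells seeded at 500-1,000 cells/well in growth media, rested 5 hours at 37 degrees C, 5% CO2, then dosed; MIPE compounds at 11-point (from 0.78 nM) and NPC at 8-point (from 0.59 nM) final concentrations. Viability by CellTiter-Glo luminescence after 48 hours.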

[5] = qHTS of pediatric cancer cell lines to identify multiple opportunities for drug repurposing: Primary screen for NB-EBc1 cells (AID 1347095)
Method in brief: as §2

[6] = qHTS of pediatric cancer cell lines to identify multiple opportunities for drug repurposing: Primary screen for U-2 OS cells (AID 1347096); further: nearly all actives have a fitted effect of over 50% in size
Method in brief: (§3)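 Viability after 48 h compound treatment at 37C, 500-1,000 cells/well, read as ATP luminescence with CellTiter-Glo. Primary screens used 11-point (MIPE, 0.78 nM-46 µM) or 8-point (NPC, 0.59 nM-46 µM) final concentrations; follow-up screens used 11-point dilutions.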

[7] = qHTS of pediatric cancer cell lines to identify multiple opportunities for drug repurposing: Primary screen for Saos-2 cells (AID 1347097); further: nearly all actives have a fitted effect of over 40% in size
Method in brief: as §2

[8] = qHTS of pediatric cancer cell lines to identify multiple opportunities for drug repurposing: Primary screen for SK-N-SH cells (AID 1347098); further: nearly all actives have a fitted effect of over 65% in size
Method in brief: (§4)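 Cells (500-1,000/well) rested 5 h, then received compounds for 48 h; metabolically active cells were measured by CellTiter-Glo luminescence. Final concentrations spanned up to 46 µM (MIPE, 11-point) or 0.59 nM-46 µM (NPC, 8-point) in primary screens, 11-point in follow-ups.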

[9] = qHTS of pediatric cancer cell lines to identify multiple opportunities for drug repurposing: Primary screen for LAN-5 cells (AID 1347100); conditions: LAN-5 neuroblastoma viability, CellTiter-Glo luminescence, 48 h; activity change, negative = cytotoxic: at 46 µM (top of the series)
Method in brief: as §3

[10] = qHTS of pediatric cancer cell lines to identify multiple opportunities for drug repurposing: Primary screen for BT-12 cells (AID 1347101); further: nearly all actives have a fitted effect of over 25% in size
Method in brief: as §4

[11] = qHTS of pediatric cancer cell lines to identify multiple opportunities for drug repurposing: Primary screen for Rh18 cells (AID 1347102); further: nearly all actives have a fitted effect of over 65% in size
Method in brief: as §3

[12] = qHTS of pediatric cancer cell lines to identify multiple opportunities for drug repurposing: Primary screen for OHS-50 cells (AID 1347103); further: nearly all actives have a fitted effect of over 40% in size
Method in brief: as §4

[13] = qHTS of pediatric cancer cell lines to identify multiple opportunities for drug repurposing: Primary screen for RD cells (AID 1347104); further: nearly all actives have a fitted effect of over 55% in size
Method in brief: as §2

[14] = qHTS of pediatric cancer cell lines to identify multiple opportunities for drug repurposing: Primary screen for MG 63 (6-TG R) cells (AID 1347105); conditions: MG 63 (6-TG R) viability, CellTiter-Glo, 48 h; activity change, negative = cytotoxic: at 46 µM (top of the series); further: nearly all actives have a fitted effect of over 50% in size
Method in brief: as §2

[15] = qHTS of pediatric cancer cell lines to identify multiple opportunities for drug repurposing: Primary screen for Rh41 cells (AID 1347108); further: nearly all actives have a fitted effect of over 70% in size;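 on activity change, negative = cytotoxic: luminescence drop marks cytotoxic hits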
Method in brief: as §2

[16] = qHTS of pediatric cancer cell lines to identify multiple opportunities for drug repurposing: Confirmatory screen for NB1643 cells (AID 1347109); conditions: NB1643 neuroblastoma cell viability; activity change, negative = cytotoxic: at 45.9 µM (top of the series); further: nearly all actives have a fitted effect of over 45% in size
Method in brief: as §3

[17] = qHTS of pediatric cancer cell lines to identify multiple opportunities for drug repurposing: Primary screen for NB1643 cells (AID 1347099); further: nearly all actives have a fitted effect of over 50% in size
Method in brief: as §2

[18] = qHTS of pediatric cancer cell lines to identify multiple opportunities for drug repurposing: Primary screen for control Hh wild type fibroblast cells (AID 1347106); further: nearly all actives have a fitted effect of over 55% in size
Method in brief: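 Cells (500-1,000/well) in growth media were settled 5 h at 37 degrees C, then given compounds for 48 h. Viability was read as CellTiter-Glo luminescence. Primary runs used MIPE at 11 points (0.78 nM-46 µM) and NPC at 8 points (0.59 nM-46 µM); follow-ups used 11 points.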

[19] = qHTS of pediatric cancer cell lines to identify multiple opportunities for drug repurposing: Primary screen for SK-N-MC cells (AID 1347093); conditions: SK-N-MC viability, CellTiter-Glo luminescence, 48 h; activity change, negative = cytotoxic: at 46 µM (top of the series)
Method in brief: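 Metabolically active cells were quantified by ATP-dependent luminescence (CellTiter-Glo, 15 min at room temperature) following 48 h treatment. Cells had been plated at 500-1,000 per well and settled for 5 h beforehand.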

[20] = qHTS of pediatric cancer cell lines to identify multiple opportunities for drug repurposing: Primary screen for Rh30 cells (AID 1347107); further: nearly all actives have a fitted effect of over 75% in size
Method in brief: as §3
Potency means the concentration at half of the fitted maximal effect; tags describe the fitted curve by direction and shape.

Compound	Potency [1]	Potency [2]	Potency [3]	Potency [4]	Potency [5]	Potency [6]	Potency [7]	Potency [8]	Potency [9]	Potency [10]	Potency [11]	Potency [12]	Potency [13]	Potency [14]	Potency [15]	Potency [16]	Potency [17]	Potency [18]	Potency [19]	Potency [20]
Cc1c(C(=O)NN2CCCCC2)nn(-c2ccc(Cl)cc2Cl)c1-c1ccc(Cl)cc1	inconclusive: 37.2 µM [cytotoxic, single point]	inconclusive: 29.9 µM [cytotoxic, single point]	inconclusive: 21.1 µM [cytotoxic, partial curve]	inconclusive: 38.9 µM [cytotoxic, single point]	inconclusive: 29.9 µM [cytotoxic, single point] and inconclusive: 29.6 µM [cytotoxic, single point]	inconclusive: 21.1 µM [cytotoxic, partial curve, poor fit]	inconclusive: 1.88 µM [cytotoxic, partial curve, poor fit] and inconclusive: 9.35 µM [cytotoxic, partial curve, poor fit]	active: 27.3 µM and active: 30.4 µM	inconclusive: 23.7 µM [cytotoxic, single point]	inconclusive: 27.6 µM [cytotoxic, single point] and active: 4.85 µM	inconclusive: 11.9 µM [cytotoxic, partial curve] and inconclusive: 18.7 µM [cytotoxic, single point]	inconclusive: 27.6 µM [cytotoxic, single point]	inconclusive: 23.7 µM [cytotoxic, single point]	inconclusive: 10.6 µM [cytotoxic, partial curve, poor fit] and inconclusive: 18.7 µM [cytotoxic, partial curve, poor fit]	inactive	inconclusive: 23.3 µM [cytotoxic, partial curve]	–	–	–	–
CCCCN1CCC(CNC(=O)c2c3n(c4ccccc24)CCCO3)CC1	active: 1.87 µM	inconclusive: 26.4 µM [cytotoxic, single point]	active: 1.48 µM	inconclusive: 30.6 µM [cytotoxic, single point]	–	–	inconclusive: 26.4 µM [cytotoxic, partial curve]	active: 15.2 µM	–	inconclusive: 43.2 µM [cytotoxic, single point]	inconclusive: 18.7 µM [cytotoxic, partial curve]	inconclusive: 34.3 µM [cytotoxic, single point]	–	–	inconclusive: 3.72 µM [cytotoxic, partial curve]	–	inconclusive: 18.7 µM [cytotoxic, partial curve]	active: 1.18 µM	–	–
Cc1ccc(NC(=O)c2ccc(CN3CCN(C)CC3)cc2)cc1Nc1nc(-c2cccnc2)cs1	inconclusive: 29.6 µM [cytotoxic, single point]	inconclusive: 20.9 µM [cytotoxic, partial curve]	active: 11.8 µM	–	–	inconclusive: 29.6 µM [cytotoxic, single point]	inconclusive: 18.7 µM [cytotoxic, partial curve, poor fit]	inconclusive: 19.2 µM [cytotoxic, partial curve]	–	–	inconclusive: 29.6 µM [cytotoxic, single point]	–	–	–	–	–	–	–	inconclusive: 37.2 µM [cytotoxic, single point]	inactive
CC(C)c1onc(-c2c(Cl)cccc2Cl)c1COc1ccc(C=Cc2cccc(C(=O)O)c2)c(Cl)c1	inconclusive: 29.6 µM [cytotoxic, single point]	inconclusive: 23.5 µM [cytotoxic, single point]	inconclusive: 29.6 µM [cytotoxic, single point]	inconclusive: 30.6 µM [cytotoxic, single point]	inconclusive: 29.6 µM [cytotoxic, single point]	–	–	inconclusive: 42.9 µM [cytotoxic, single point]	inconclusive: 26.4 µM [cytotoxic, single point]	inconclusive: 43.2 µM [cytotoxic, partial curve, poor fit]	inconclusive: 18.7 µM [cytotoxic, partial curve]	–	inconclusive: 29.6 µM [cytotoxic, single point]	inconclusive: 37200 nM [cytotoxic, single point]	inconclusive: 23.5 µM [cytotoxic, partial curve]	–	–	–	–	inconclusive: 20.9 µM [cytotoxic, partial curve]
CNC(=O)c1cc(Oc2ccc(NC(=O)Nc3ccc(Cl)c(C(F)(F)F)c3)cc2)ccn1	inconclusive: 26.6 µM [cytotoxic, single point]	inconclusive: 29.9 µM [cytotoxic, single point]	active: 2.96 µM and inconclusive: 21.1 µM [cytotoxic, single point]	inconclusive: 38.9 µM [cytotoxic, single point]	inconclusive: 23.7 µM [cytotoxic, single point]	active: 18.7 µM and inconclusive: 13.3 µM [cytotoxic, single point]	active: 18.7 µM and inconclusive: 26.6 µM [cytotoxic, single point]	active: 19.2 µM and active: 15.4 µM	active: 20.9 µM and inconclusive: 26.6 µM [cytotoxic, single point]	inconclusive: 30.9 µM [cytotoxic, single point]	inconclusive: 26.6 µM [cytotoxic, single point]	–	active: 18.7 µM and active: 23.7 µM	inconclusive: 29.6 µM [cytotoxic, single point] and inconclusive: 16.8 µM [cytotoxic, single point]	active: 18.7 µM and inconclusive: 16.8 µM [cytotoxic, single point]	–	active: 4.69 µM and inconclusive: 21.1 µM [cytotoxic, single point]	–	–	–
COc1cc(CNC(=O)CCCCC=CC(C)C)ccc1O	inactive	inactive	inconclusive: 2.35 µM [cytotoxic, full curve]	–	–	–	–	inconclusive: 24.1 µM [cytotoxic, partial curve, poor fit]	inconclusive: 23.5 µM [cytotoxic, single point]	–	–	inconclusive: 21.7 µM [cytotoxic, partial curve]	–	–	–	inactive	inconclusive: 20.9 µM [cytotoxic, single point]	–	–	–
Fc1ccc(C(c2ccc(F)cc2)N2CCN(CC=Cc3ccccc3)CC2)cc1	inactive	inconclusive: 0.0469 µM [cytotoxic, single point]	inconclusive: 2.35 µM [cytotoxic, full curve, poor fit]	–	inconclusive: 33.2 µM [cytotoxic, partial curve, poor fit]	–	inconclusive: 20.9 µM [cytotoxic, partial curve]	–	–	inconclusive: 24.3 µM [cytotoxic, partial curve, poor fit]	–	–	–	–	inconclusive: 9.35 µM [cytotoxic, partial curve, poor fit]	–	inconclusive: 16.6 µM [cytotoxic, partial curve, poor fit]	–	inconclusive: 29.6 µM [cytotoxic, partial curve]	–
COc1cc(-c2nn(C3CCC(N4CCN(C(C)=O)CC4)CC3)c3ncnc(N)c23)ccc1NC(=O)c1cc2ccccc2n1C (centres undefined)	inconclusive: 0.743 µM [cytotoxic, full curve]	active: 1.87 µM	active: 0.235 µM	inconclusive: 3.06 µM [cytotoxic, full curve]	inconclusive: 1.18 µM [cytotoxic, full curve]	inconclusive: 4.69 µM [cytotoxic, full curve]	–	–	–	inconclusive: 3.85 µM [cytotoxic, full curve]	inconclusive: 1.66 µM [cytotoxic, full curve]	active: 2.17 µM	active: 0.662 µM	inconclusive: 935 nM [cytotoxic, full curve]	inconclusive: 1.48 µM [cytotoxic, full curve]	–	inconclusive: 0.235 µM [cytotoxic, full curve]	inconclusive: 0.935 µM [cytotoxic, full curve, poor fit]	–	–
CSc1cccc(Nc2ncc3cc(-c4c(Cl)cccc4Cl)c(=O)n(C)c3n2)c1	inconclusive: 0.296 µM [cytotoxic, full curve]	active: 0.418 µM	inconclusive: 0.469 µM [cytotoxic, full curve]	inconclusive: 0.306 µM [cytotoxic, full curve]	–	inconclusive: 0.148 µM [cytotoxic, full curve, poor fit]	–	–	active: 0.372 µM	–	inconclusive: 0.166 µM [cytotoxic, full curve]	inconclusive: 0.0968 µM [cytotoxic, full curve]	inconclusive: 0.235 µM [cytotoxic, full curve]	inconclusive: 296 nM [cytotoxic, full curve]	active: 0.743 µM	active: 2.93 µM	active: 0.209 µM	–	–	–
